Measured values published in the supplement of paper PMC8728848.
This is one part of the list.

Key:
Experiment in all cases: glycan array binding signal (z-score within array); higher = stronger binding
Conditions in all cases: glycan notation: IUPAC condensed, linker removed
[1] = molecular target: Gal(b1-4)GlcNAc(b1-3)Gal(b1-4)GlcNAc(b1-3)Gal(b1-4)GlcNAc(b1-3)Gal(b1-4)GlcNAc(b1-2)Man(a1-3)[Gal(b1-4)GlcNAc(b1-3)Gal(b1-4)GlcNAc(b1-3)Gal(b1-4)GlcNAc(b1-3)Gal(b1-4)GlcNAc(b1-2)Man(a1-6)]Man(b1-4)GlcNAc(b1-4)GlcNAc
In short: (§1)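 The binding signal is a Z-score computed within each array. Data were drawn from 3228 arrays in the Consortium for Functional Glycomics database, restricted to those with a known protein sequence. Scores were averaged over arrays of the same protein sequence at different concentrations or buffers, and over linkers, and negative values can be taken as non-binding.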

[2] = molecular target: Gal(b1-4)GlcNAc(b1-3)Gal(b1-4)GlcNAc(b1-3)Gal(b1-4)GlcNAc(b1-3)Gal(b1-4)GlcNAc(b1-2)Man(a1-3)[Gal(b1-4)GlcNAc(b1-3)Gal(b1-4)GlcNAc(b1-3)Gal(b1-4)GlcNAc(b1-3)Gal(b1-4)GlcNAc(b1-2)Man(a1-6)]Man(b1-4)GlcNAc(b1-4)[Fuc(a1-6)]GlcNAc
In short: as §1

[3] = molecular target: Gal(b1-4)GlcNAc(b1-3)Gal(b1-4)GlcNAc(b1-3)Gal(b1-4)GlcNAc(b1-3)Gal(b1-4)GlcNAc(b1-2)[Gal(b1-4)GlcNAc(b1-3)Gal(b1-4)GlcNAc(b1-3)Gal(b1-4)GlcNAc(b1-3)Gal(b1-4)GlcNAc(b1-6)]Man(a1-6)[Gal(b1-4)GlcNAc(b1-3)Gal(b1-4)GlcNAc(b1-3)Gal(b1-4)GlcNAc(b1-3)Gal(b1-4)GlcNAc(b1-2)Man(a1-3)]Man(b1-4)GlcNAc(b1-4)[Fuc(a1-6)]GlcNAc
In short: as §1

[4] = molecular target: Gal(b1-4)GlcNAc(b1-3)Gal(b1-4)GlcNAc(b1-3)Gal(b1-4)GlcNAc(b1-3)Gal(b1-4)GlcNAc(b1-3)Gal(b1-4)GlcNAc(b1-2)Man(a1-3)[Gal(b1-4)GlcNAc(b1-3)Gal(b1-4)GlcNAc(b1-3)Gal(b1-4)GlcNAc(b1-3)Gal(b1-4)GlcNAc(b1-3)Gal(b1-4)GlcNAc(b1-2)Man(a1-6)]Man(b1-4)GlcNAc(b1-4)GlcNAc
In short: as §1

[5] = molecular target: Gal(b1-4)GlcNAc(b1-3)Gal(b1-4)GlcNAc(b1-3)Gal(b1-4)GlcNAc(b1-3)Gal(b1-4)GlcNAc(b1-3)Gal(b1-4)GlcNAc(b1-2)Man(a1-3)[Gal(b1-4)GlcNAc(b1-3)Gal(b1-4)GlcNAc(b1-3)Gal(b1-4)GlcNAc(b1-3)Gal(b1-4)GlcNAc(b1-3)Gal(b1-4)GlcNAc(b1-2)Man(a1-6)]Man(b1-4)GlcNAc(b1-4)[Fuc(a1-6)]GlcNAc
In short: as §1

[6] = molecular target: Gal(b1-4)GlcNAc(b1-3)Gal(b1-4)GlcNAc(b1-3)Gal(b1-4)GlcNAc(b1-3)Gal(b1-4)GlcNAc(b1-3)Gal(b1-4)GlcNAc(b1-2)[Gal(b1-4)GlcNAc(b1-3)Gal(b1-4)GlcNAc(b1-3)Gal(b1-4)GlcNAc(b1-3)Gal(b1-4)GlcNAc(b1-3)Gal(b1-4)GlcNAc(b1-6)]Man(a1-6)[Gal(b1-4)GlcNAc(b1-3)Gal(b1-4)GlcNAc(b1-3)Gal(b1-4)GlcNAc(b1-3)Gal(b1-4)GlcNAc(b1-3)Gal(b1-4)GlcNAc(b1-2)Man(a1-3)]Man(b1-4)GlcNAc(b1-4)[Fuc(a1-6)]GlcNAc
In short: as §1

[7] = molecular target: Gal(b1-4)GlcNAc(b1-3)Gal(b1-4)GlcNAc(b1-3)Gal(b1-4)GlcNAc(b1-3)Gal(b1-4)GlcNAc(b1-3)Gal(b1-4)GlcNAc(b1-3)Gal(b1-4)GlcNAc(b1-2)Man(a1-3)[Gal(b1-4)GlcNAc(b1-3)Gal(b1-4)GlcNAc(b1-3)Gal(b1-4)GlcNAc(b1-3)Gal(b1-4)GlcNAc(b1-3)Gal(b1-4)GlcNAc(b1-3)Gal(b1-4)GlcNAc(b1-2)Man(a1-6)]Man(b1-4)GlcNAc(b1-4)GlcNAc
In short: as §1

[8] = molecular target: Gal(b1-4)GlcNAc(b1-3)Gal(b1-4)GlcNAc(b1-3)GalNAc
In short: as §1

[9] = molecular target: Gal(b1-4)GlcNAc(b1-3)Gal(b1-4)GlcNAc(b1-3)[Gal(b1-4)GlcNAc(b1-3)Gal(b1-4)GlcNAc(b1-6)]GalNAc
In short: as §1

[10] = molecular target: Gal(b1-4)GlcNAc(b1-3)Gal(b1-4)GlcNAc(b1-6)[Gal(b1-3)]GalNAc
In short: as §1

[11] = molecular target: Gal(b1-4)GlcNAc(b1-3)Gal(b1-4)[Fuc(a1-3)]GlcNAc(b1-3)Gal(b1-4)[Fuc(a1-3)]GlcNAc
In short: as §1

[12] = molecular target: Gal(b1-4)GlcNAc(b1-3)GalNAc
In short: as §1

[13] = molecular target: Gal(b1-4)GlcNAc(b1-3)[Fuc(a1-3)GlcNAc(b1-6)]Gal(b1-4)Glc
In short: as §1

[14] = molecular target: Gal(b1-4)GlcNAc(b1-3)[Gal(b1-4)GlcNAc(b1-6)]Gal(b1-4)GlcNAc
In short: as §1

[15] = molecular target: Gal(b1-4)GlcNAc(b1-3)[GlcNAc(b1-6)]Gal(b1-4)GlcNAc
In short: as §1

[16] = molecular target: Gal(b1-4)GlcNAc(b1-6)Gal(b1-4)GlcNAc
In short: as §1

[17] = molecular target: Gal(b1-4)GlcNAc(b1-6)GalNAc
In short: as §1

[18] = molecular target: Gal(b1-4)GlcNAc(b1-6)[Gal(b1-3)]GalNAc
In short: as §1

[19] = molecular target: Gal(b1-4)GlcNAc(b1-6)[Gal(b1-4)GlcNAc(b1-3)]GalNAc
In short: as §1

[20] = molecular target: Gal(b1-4)GlcNAc6P
In short: as §1

[21] = molecular target: Gal(b1-6)Gal
In short: as §1

[22] = molecular target: Gal3S(b1-3)GalNAc
In short: as §1

[23] = molecular target: Gal3S(b1-3)GlcNAc
In short: as §1

B1: Dectin2 (Homo sapiens), Q6EIG7 (protein)
chain: MMQEQQPQSTEKRGWLSLRLWSVAGISIALLSACFIVSCVVTYHFTYGETGKRLSELHSYHSSLTCFSEGTKVPAWGCCPASWKSFGSSCYFISSEEKVWSKSEQNCVEMGAHLVVFNTEAEQNFIVQQLNESFSYFLGLSDPQGNNNWQWIDKTPYEKNVRFWHLGEPNHSAEQCASIVFWKPTGWGWNDVICETRRNSICEMNKIYL
- glycan array binding signal (z-score) [1]: -0.086
- glycan array binding signal (z-score) [2]: -0.09
- glycan array binding signal (z-score) [3]: -0.051
- glycan array binding signal (z-score) [4]: -0.062
- glycan array binding signal (z-score) [5]: -0.077
- glycan array binding signal (z-score) [6]: -0.055
- glycan array binding signal (z-score) [7]: 0.04
- glycan array binding signal (z-score) [8]: -0.013
- glycan array binding signal (z-score) [9]: 0.179
- glycan array binding signal (z-score) [10]: 0.038
- glycan array binding signal (z-score) [11]: -0.148
- glycan array binding signal (z-score) [12]: -0.186
- glycan array binding signal (z-score) [13]: -0.161
- glycan array binding signal (z-score) [14]: -0.183
- glycan array binding signal (z-score) [15]: 0.376
- glycan array binding signal (z-score) [16]: -0.198
- glycan array binding signal (z-score) [17]: -0.178
- glycan array binding signal (z-score) [18]: 0.199
- glycan array binding signal (z-score) [19]: -0.169
- glycan array binding signal (z-score) [20]: -0.184
- glycan array binding signal (z-score) [21]: -0.158
- glycan array binding signal (z-score) [22]: -0.138
- glycan array binding signal (z-score) [23]: -0.151
